# Data from paper PMC4336329 (PLoS ONE, 2015).
# About 2,200 (0.71%) of roughly 310,000 compounds showed an effect of 50% or more. The effect is printed as a negative number. The list shows a part of the results.
# Molecular target: human ether-à-go-go-related gene (hERG) potassium channel (human, UniProt Q12809)
# Experiment: primary screen, population patch clamp on CHO cells stably expressing hERG
# human ether-à-go-go-related gene (hERG) potassium channel, sequence (Q12809 whole entry, looked up): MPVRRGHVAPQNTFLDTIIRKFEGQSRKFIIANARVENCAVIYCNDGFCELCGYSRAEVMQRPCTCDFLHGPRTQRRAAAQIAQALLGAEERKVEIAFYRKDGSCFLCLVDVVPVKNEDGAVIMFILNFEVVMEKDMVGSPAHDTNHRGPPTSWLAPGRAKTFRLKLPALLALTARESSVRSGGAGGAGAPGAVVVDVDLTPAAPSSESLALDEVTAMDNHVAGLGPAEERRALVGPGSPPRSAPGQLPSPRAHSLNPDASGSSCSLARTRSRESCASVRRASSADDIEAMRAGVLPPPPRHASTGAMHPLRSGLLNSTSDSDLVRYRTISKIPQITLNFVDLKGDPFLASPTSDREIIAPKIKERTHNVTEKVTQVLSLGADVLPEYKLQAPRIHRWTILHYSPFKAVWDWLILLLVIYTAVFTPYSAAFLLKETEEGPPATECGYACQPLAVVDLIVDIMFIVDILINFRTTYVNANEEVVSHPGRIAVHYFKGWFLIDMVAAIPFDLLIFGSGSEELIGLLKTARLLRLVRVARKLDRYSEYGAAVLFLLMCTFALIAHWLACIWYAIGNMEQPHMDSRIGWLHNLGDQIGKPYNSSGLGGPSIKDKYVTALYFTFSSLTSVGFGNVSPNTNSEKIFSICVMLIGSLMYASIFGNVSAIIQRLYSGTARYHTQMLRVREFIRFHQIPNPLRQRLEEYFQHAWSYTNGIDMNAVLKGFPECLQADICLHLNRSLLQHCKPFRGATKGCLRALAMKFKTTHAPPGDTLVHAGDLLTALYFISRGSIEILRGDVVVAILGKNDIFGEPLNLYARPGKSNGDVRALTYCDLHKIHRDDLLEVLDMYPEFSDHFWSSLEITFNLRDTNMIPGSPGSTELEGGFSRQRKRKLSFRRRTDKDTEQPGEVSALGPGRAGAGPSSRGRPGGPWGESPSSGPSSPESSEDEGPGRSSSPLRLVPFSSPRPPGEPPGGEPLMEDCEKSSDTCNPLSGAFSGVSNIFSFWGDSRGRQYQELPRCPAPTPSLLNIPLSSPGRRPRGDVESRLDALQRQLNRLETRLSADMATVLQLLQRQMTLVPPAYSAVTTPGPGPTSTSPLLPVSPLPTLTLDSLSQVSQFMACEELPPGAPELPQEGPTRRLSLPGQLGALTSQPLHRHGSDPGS
row,Compound,"hERG current change (%, negative = inhibition) at 1uM [%]"
1,COc1ccccc1N1CN(Cc2ccccc2)CNC1=S,13.4
2,Cc1ccc(-c2noc(C3CCCN(C(=O)c4ccc(Cl)cc4)C3)n2)o1 (stereo not shown),-1.55
3,COc1ccc(OC)c(N=Cc2c(O)c3ccccc3oc2=O)c1,11.2
4,CC(C)CSc1ncnc2c1oc1nc3c(cc12)COC(C)(C)C3,3.38
5,Cc1nnc(SCC(=O)Nc2nccs2)s1,17
6,O=C(/C=C/c1c(F)cccc1Cl)N1CCOCC1,13.8
7,CC(=O)Nc1ccc(CC(=O)NCCC(c2ccccc2)c2ccccc2)cc1,12.8
8,CC(NC(=O)Cn1cc(Br)c([N+](=O)[O-])n1)c1ccccc1 (stereo not shown),11
9,CC(=O)c1cccc(N(CC(=O)Nc2cc(C)cc(C)c2)S(C)(=O)=O)c1,16
10,Cc1cc(NC(=O)CCC(=O)N(c2ccc(F)cc2)C2(C(=O)NC3CCCCC3)CCCC2)no1,11.4
11,O=S(=O)(c1ccc(Cl)cc1)N1c2ccccc2Oc2nc3ccccc3nc21,10.4
12,CSc1cccc(NC(=O)CCCOc2ccccc2)c1,11.5
13,O=[N+]([O-])c1ccc2oc(C(O)c3cccc(Cl)c3)cc2c1 (stereo not shown),15.8
14,CCOc1ncccc1C(=O)Nc1ccc(-c2ccc3nnc(C)n3n2)cc1,12.5
15,O=C(C1CCN(S(=O)(=O)c2ccc(-n3cnnn3)cc2)CC1)N1CCN(c2ccccc2)CC1,-16.1
16,CC1(C)NC(=O)N(CCOCCOc2ccc3ccccc3c2Br)C1=O,15.9
17,C=CCn1c(-c2cccnc2)n[nH]c1=S,16.1
18,Cc1nc(C)c(-c2ccc(SCc3ccccc3C)nn2)s1,12.5
19,CN1/C(=C\C=C2C(=O)NC(=O)NC2=O)C(C)(C)c2ccccc21,10.7
20,CNC(=O)COc1ccc(Nc2nnc(-c3ccc(C)c(S(N)(=O)=O)c3)c3ccccc23)cc1,8.95
21,Cc1cc(C(C#N)c2cccc(Cl)c2)n2ncnc2n1 (stereo not shown),11.8
22,CC(=O)N1CCN(c2ccc(NC(=S)NC(=O)/C=C/c3ccccc3)cc2)CC1,12.5
23,C=CCOc1ccc(/C=C/C(=O)OCC(=O)NCCc2ccccc2)cc1,13.3
24,CCCNC(=O)C1CC(=O)N(c2ccc(OCC(=O)Nc3cccc(C)c3C)cc2)C1 (stereo not shown),11
25,CC(=O)Nc1cc(C(=O)N2CCN(C)CC2)ccc1S(=O)(=O)c1ccc(C)cc1,3.13
